This is one part of the list.
What follows are compounds tested on T1, C. trachomatis L2/434/Bu expressing GFP (CTL2-GFP). Conditions: total inclusion area; 28.5 h, 10 µM; inhibitor.
T1 construct: L2/434/Bu GFP intracellular growth in HeLa cells
Parameters: species or system HeLa; C. trachomatis total inclusion area by high-content imaging, normalised to DMSO
How it was run: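 Imaging read-out: GFP inclusions and Hoechst nuclei captured by high-content imaging after fixation. Inclusion area/number = chlamydial growth; nuclei count = host cell viability. MIC calculated per earlier method.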

| SMILES | % of control remaining |
| --- | --- |
| CCOC(=O)c1ccccc1NS(C)(=O)=O [CBK262271] | 68.4619 |
| CC(C)n1cc(C(=O)N2CCCCC2c2nc3ccccc3[nH]2)cn1 (centres unmarked) [CBK283679] | 44.3616 |
| CC(=O)Nc1cc(NC(C)=O)c(O)c(C(=O)O)c1 [CBK009871] | 106.378 |
| CCOC(=O)CNC(=O)Nc1cc2ccccc2c(Br)n1 [CBK063279] | 104.273 |
| CC(C)c1ccc(S(=O)(=O)Nc2ccc(Br)c(F)c2)cc1 [CBK044556] | 30.5654 |
| Cc1cc(COc2nccnc2OC2CCN(CCN3CCOCC3)CC2)no1 [CBK082961T] | 83.1874 |
| O=C(CCC1CCCO1)NC(Cc1ccsc1)c1cccnc1 (centres unmarked) [CBK285159] | 104.307 |
| CCOC(=O)c1ccc(NC(=O)c2ccccc2-c2nc(-c3ccccc3Cl)no2)cc1 [CBK268919] | 108.978 |
| CCCc1cn(C2CCN(c3cc(-n4cc(C)cn4)ncn3)CC2)nn1 [CBK307127] | 52.8765 |
| COc1ccc2c(c1)cc(C)c1n[nH]c(=O)n12 [CBK283766] | 77.3901 |
| C=C(C)Cn1c(SCC(C)C)nnc1-c1ccccc1C(=O)O [CBK200093] | 90.8321 |
| Cc1ccc(NC(=O)c2nc3ccccc3[nH]2)c(C)n1 [CBK200296] | 117.352 |
| O=C1CCCN1CCOc1nccnc1-c1ccccc1Cl [CBK106999] | 74.3079 |
| C/N=C1/c2cn3ccccc3c2CCN1C [CBK022058] | 98.5421 |
| O=C(CN1CCCCC1)N1CCCC1c1nc2ccccc2[nH]1 (centres unmarked) [CBK283935] | 78.8758 |
| COCCN(C(=S)Nc1ccc(C)cc1Cl)C(C)c1cccnc1 (centres unmarked) [CBK294472] | 110.813 |
| CCOC(=O)CCCNC(=O)N1CCCC(CO)C1 (centres unmarked) [CBK156344] | 100.705 |
| Cc1nc(-c2nnc(NC(=O)COc3ccc(Cl)cc3Cl)o2)cs1 [CBK287843] | 103.694 |
| CCN1CCC2(CC1)Nc1cc(Cl)c(S(N)(=O)=O)cc1S(=O)(=O)N2 [CBK010418C] | 62.5002 |
| O=C(NCCc1ccc(O)cc1)c1ccc(-c2ccc(OC(F)(F)F)cc2)nc1 [CBK156224] | 67.0367 |
| O=C(NCc1ccccc1)[C@@H]1Cc2[nH]cnc2CN1C(=O)C1CCCCC1 [CBK288972] | 77.968 |
| CCC(C)CS(=O)(=O)c1nc(C)c(C)n1CC1CCCO1 (centres unmarked) [CBK305107] | 50.8692 |
| COc1ccc(-c2ccccc2NS(=O)(=O)c2ccc3c(c2)CCC(=O)N3)cc1 [CBK286370] | 108.255 |
